According to article PMC4336329 (PLoS ONE, 2015):
Screen size: about 310,000 compounds; about 14,000 (4.5%) showed an effect of 50% or more. The effect is printed as a negative number. The list shows a part of the results.

biological target: human ether-à-go-go-related gene (hERG) potassium channel (human, UniProt Q12809); test: primary screen, population patch clamp on CHO cells stably expressing hERG
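Further: peak tail current of the secondary pulse compared with the same well before compound.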

Sequence of human ether-à-go-go-related gene (hERG) potassium channel (Q12809 whole entry, looked up): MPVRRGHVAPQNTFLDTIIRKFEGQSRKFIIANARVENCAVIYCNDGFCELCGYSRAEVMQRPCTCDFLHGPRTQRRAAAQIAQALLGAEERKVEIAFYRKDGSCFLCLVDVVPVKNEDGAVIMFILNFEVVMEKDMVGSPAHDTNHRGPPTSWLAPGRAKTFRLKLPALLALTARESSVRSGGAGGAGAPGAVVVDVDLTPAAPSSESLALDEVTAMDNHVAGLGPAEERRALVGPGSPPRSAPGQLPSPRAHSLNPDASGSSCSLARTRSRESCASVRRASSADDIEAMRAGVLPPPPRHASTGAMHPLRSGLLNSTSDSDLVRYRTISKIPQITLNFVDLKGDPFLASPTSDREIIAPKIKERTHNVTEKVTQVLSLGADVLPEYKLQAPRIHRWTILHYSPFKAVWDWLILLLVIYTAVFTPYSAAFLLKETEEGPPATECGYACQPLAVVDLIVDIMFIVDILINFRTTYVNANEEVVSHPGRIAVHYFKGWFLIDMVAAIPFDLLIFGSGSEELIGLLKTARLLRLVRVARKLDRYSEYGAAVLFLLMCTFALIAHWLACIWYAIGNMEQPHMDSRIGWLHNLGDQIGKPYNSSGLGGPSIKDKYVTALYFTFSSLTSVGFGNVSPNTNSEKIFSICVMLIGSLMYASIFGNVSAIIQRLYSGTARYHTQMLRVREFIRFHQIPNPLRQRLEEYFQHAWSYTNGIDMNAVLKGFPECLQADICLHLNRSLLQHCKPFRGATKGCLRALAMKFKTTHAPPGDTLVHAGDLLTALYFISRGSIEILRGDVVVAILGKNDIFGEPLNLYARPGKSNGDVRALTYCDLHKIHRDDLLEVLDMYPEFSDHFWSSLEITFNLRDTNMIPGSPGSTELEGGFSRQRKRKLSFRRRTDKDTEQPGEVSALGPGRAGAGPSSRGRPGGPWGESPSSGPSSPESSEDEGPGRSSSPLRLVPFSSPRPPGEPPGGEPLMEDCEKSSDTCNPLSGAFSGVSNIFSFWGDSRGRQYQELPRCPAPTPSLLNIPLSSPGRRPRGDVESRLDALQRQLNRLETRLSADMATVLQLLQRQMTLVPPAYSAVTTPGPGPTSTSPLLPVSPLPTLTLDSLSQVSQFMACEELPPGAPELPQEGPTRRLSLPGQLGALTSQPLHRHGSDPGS

Row | SMILES | hERG current change (%, negative = inhibition) at 10uM [%]
1 | COc1cc(NS(=O)(=O)c2ccc(NC(=S)NC(=O)c3cccs3)cc2)nc(OC)n1 | -21.2
2 | CCOC(=O)C1(CC2CCCCO2)CCN(Cc2nc(-c3cccs3)oc2C)CC1 (centres unmarked) | -67.6
3 | CCOC(=O)C1CCCN(S(=O)(=O)Cc2ccccc2Cl)C1 (centres unmarked) | 2.84
4 | COc1ccc(-c2nc(CS(=O)CC(=O)NCc3ccc(F)cc3)c(C)o2)cc1 (centres unmarked) | -11.9
5 | COc1cc(O)c(C(CC(=O)N2CCCC2)c2ccc(N(C)C)cc2)c(OC)c1 (centres unmarked) | 19.3
6 | CC1=NN(c2ccccc2)C(=O)C1=C(C)C | 17
7 | CN1C(=O)C(=Cc2ccc(N3CCCCC3)o2)C(=O)N(C)C1=S | 3.71
8 | Cc1ccccc1NC(=O)CSc1nnc(CNC(=O)c2ccc3c(c2)OCO3)n1C | 1.34
9 | CC(C)CN(C(=O)CN1CCCCCC1)c1c(N)n(CC(C)C)c(=O)[nH]c1=O | 23.9
10 | CCCCOc1ccc(-c2nnn(C(C)C(=O)OCC)n2)cc1 (centres unmarked) | -13.9
11 | CCOC(=O)/C=C/C(=O)Nc1ccc(S(=O)(=O)Nc2cc(C)on2)cc1 | 9.75
12 | CCOc1c2ccc(C(=O)NCc3ccccc3OC)cc2nn1CC | 11.5
13 | Cc1nc2sc3c(c2c(=O)n1NC(=O)CCl)CCCC3 | -10.8
14 | CC(=O)c1c(C)oc2ccc(NS(=O)(=O)c3ccc(O)c(C(=O)O)c3)cc12 | 6.41
15 | CC(C)N1C(=S)SC(C)(C)C1NO (centres unmarked) | 4.75
16 | CCOc1ccccc1OCCCC(=O)Nc1ccc(OC)nc1 | 9.71
17 | COC(=O)c1ccc(C(c2c(N)n(Cc3ccccc3)c(=O)n(C)c2=O)N2CCOCC2)cc1 (centres unmarked) | -57.9
18 | CCOC(=O)C1=C(C)OC(N)=C(C#N)C1c1c(C)nn(-c2ccccc2)c1Cl (centres unmarked) | -12.5
19 | COC(=O)c1ccccc1NC(=O)CSc1nnc(-c2cccc(NC(C)=O)c2)n1C | -3.68
20 | CCNC(=O)c1ccccc1-c1nc(-c2ccccc2OC)no1 | -0.178
21 | CCOc1ccc(NC(=O)NC2CCCc3ccccc32)cc1 (centres unmarked) | 32.1
22 | COc1ccc(Cl)cc1-c1nc(N)nc(N(C)C)n1 | -9.28
23 | O=S(=O)(c1ccc(F)cc1)N1CCC(c2nc3ccccc3[nH]2)CC1 | -2.46

Row | SMILES | hERG current change (%, negative = inhibition) at 10uM [%]
24 | CCOC(=O)C1CCCN(C(=O)/C=C/c2ccc([N+](=O)[O-])cc2)C1 (centres unmarked) | -64.8
25 | O=C(CCCCCN1C(=O)c2cccc([N+](=O)[O-])c2C1=O)Nc1ccccc1F | 12.5
26 | O=C(O)CCN1CCc2ccccc2C1c1ccncc1 (centres unmarked) | 13.2
27 | O=C(NCc1ccccn1)c1cc(-c2ccc(Cl)cc2)oc1C(F)(F)F | 3.34
28 | Cc1ccc(C(=O)NCCC(=O)N2CCOCC2)cc1 | 15.3
29 | CC(OC(=O)CCN=C1NS(=O)(=O)c2ccccc21)C(=O)Nc1ccc(F)c(F)c1F (centres unmarked) | -8.42
30 | CC(=O)Nc1cccc(NC(=O)C(=O)c2cn(CC(=O)N3CCCCC3)c3ccccc23)c1 | -4.02
31 | O=C1Nc2ccccc2C(=O)N2C[C@@H](O)C[C@H]12 | 26.3
32 | O=C(C1CC(c2ccc(F)cc2)=NO1)N1CCN(c2ccccc2)CC1 (centres unmarked) | 5.22
33 | CN1N=C(C(=O)N2CCCC(C(=O)c3cccc(C(F)(F)F)c3)C2)CCC1=O (centres unmarked) | -2.17
34 | CCOc1ccccc1NC(=O)C(OC(=O)c1ccc(NC(=O)CC#N)cc1)c1ccccc1 (centres unmarked) | 12.6
35 | Br.CC(C)O.Cc1ccc(-c2csc(Nc3ccccc3)[n+]2CCc2ccccc2)cc1 | 20.5
36 | COc1ccc(NC(=O)CSc2nnc(CNC(=O)c3ccco3)o2)c(OC)c1 | 6.03
37 | COc1ccc2[nH]cc(CCNCc3cccnc3)c2c1.Cl | 4.89
38 | CC(=O)NC1(C(F)(F)F)NC(=O)N(C2CCCCC2)C1=O (centres unmarked) | -15
39 | CNC(=O)CSc1nnnn1-c1cc(C)ccc1C | 5.31
40 | CCN1CCN(c2cc(C)c3cc(NC(=O)c4cccnc4Cl)ccc3n2)CC1 | -6.83
41 | O=C1CC(N2CCN(c3ccccc3)CC2)C(=O)N1CCc1ccccc1 (centres unmarked) | -17.8
42 | COC(=O)c1ccc(CSc2nncn2C)cc1 | -4.19
43 | Nc1cc(N)cc(-c2nc3ccccc3[nH]2)c1 | -1.71
44 | CCCn1c(N)c(C(=O)COC(=O)c2c(C)noc2C)c(=O)n(C)c1=O | -21
45 | CCCCOC(=O)CCc1c(C)[nH]c(=O)c(C#N)c1C | -32.8
46 | Cc1cc(C)n2ncc(-c3cccc(Br)c3)c2n1 | 5.79

Row | SMILES | hERG current change (%, negative = inhibition) at 10uM [%]
47 | O=C(CN1CCCc2ccccc21)NCc1ccc2c(c1)OCO2 | -0.305
48 | COCCNCc1ccccc1 | 0.571
49 | CCOC(=O)c1sc(NC(=O)CC)nc1C | -2.64
50 | O=c1cnc2ccccc2n1Cc1ccc(Br)cc1 | 0.175
51 | CC(C)CCN1CCN(Cc2cccc(-n3cccn3)c2)CC1CCO (centres unmarked) | -57.6
52 | COC(=O)Cc1ccc(NC(=S)NCc2ccc(S(N)(=O)=O)cc2)cc1 | 15.8
53 | CCOc1ccc2[nH]c(=O)c(CN(CCO)C(=O)c3ccc(OC)c(OC)c3)cc2c1 | -0.583
54 | O=C(NCc1cccc(Cl)c1)c1ccc(-c2csnn2)cc1 | 6.03
55 | CCCc1nnc(NC(=O)C2CC(=O)N(CCc3ccc(F)cc3)C2)s1 (centres unmarked) | -32.6
56 | CCn1c(SCC(=O)c2ccc3c(c2)OCCO3)nnc1C(C)C | 4.98
57 | O=C(CCc1nc(-c2ccc(Cl)cc2)no1)OCc1ccc(Br)cc1 | 7.97
58 | CC(=O)N1CCN(c2ccccc2NC(=O)c2cc3ccccc3o2)CC1 | -49.8
59 | Cc1ccc(O)c(CNc2cnc3ccccc3c2)c1 | 2.28
60 | Fc1ccc(NC(=S)NCCc2ccc(Cl)cc2)cc1 | 1.47
61 | CCn1cc(C(=O)N2CCN(c3ccc(OC)cc3)CC2)c(=O)c2cc(S(=O)(=O)N3CCCCC3)ccc21 | 26.4
62 | COc1ccc(OCCOc2ccc(N(C)S(=O)(=O)c3ccccc3)cc2)cc1 | -3.07
63 | CCCCNS(=O)(=O)c1ccc(NC(=O)C(Sc2ccccc2)c2ccccc2)cc1 (centres unmarked) | 15.9
64 | CC(NC(=O)c1ccccc1N)c1ccccc1 (centres unmarked) | 8.41
65 | O=C(CNc1cccc(C(F)(F)F)c1)N/N=C/c1ccccc1C(=O)O | 8.38
66 | O=C(NC1CCCC1)C(c1ccc(F)cc1)N(C(=O)c1csnn1)c1ccccc1 (centres unmarked) | 15
67 | Cc1nc(N)sc1-c1csc(Nc2ccccc2)n1 | -6.34
68 | COc1ccc(NC(=O)C2CCN(S(=O)(=O)c3ccc(Br)s3)CC2)cc1OC | -23.1
69 | CCN(CC)CCCNC(=O)CSc1c2c(nc3cc(Cl)ccc13)CCCC2 | -48.4

Row | SMILES | hERG current change (%, negative = inhibition) at 10uM [%]
70 | O=C(NCc1ccccn1)c1ccc(CNS(=O)(=O)c2cccc(C(F)(F)F)c2)cc1 | -10.5
71 | Cc1ccc([N+](=O)[O-])cc1NC(=O)CCSc1ccc(Cl)cc1 | 5.48
72 | CCCCCn1c(N2CCOCC2)nc2c1c(=O)n(CC(N)=O)c(=O)n2C | -6.44
73 | Cc1cc(C)cc(NS(=O)(=O)c2cnc(Cl)c(Cl)c2)c1 | 7.75
74 | O=S(=O)(Nc1ncccn1)c1ccc(NC(=S)N2CCN(Cc3ccc(F)cc3Cl)CC2)cc1 | 22
75 | O=Cc1c(C(=O)O)n(Cc2ccccc2F)c2ccccc12 | 14.3
76 | COc1ccc(C2Nc3ccccc3C(=O)N2Cc2ccco2)cc1COc1ccccc1F (centres unmarked) | 10.5
77 | O=C(NC(=S)Nc1cccc2cc(O)ccc12)c1ccco1 | 21.5
78 | CCC(=O)c1ccc(OC(=O)Cc2ccc(OC)cc2)cc1 | 10.1
79 | CCOC(=O)C1(Cc2ccccc2)CCN(Cc2cccn2-c2cccnc2)CC1 | -39
80 | Cc1ccc(NC(=O)c2ccc([N+](=O)[O-])o2)cc1S(=O)(=O)N1CCOCC1 | -37.4
81 | COc1ccc(NC(=O)COC(=O)CO/N=C(\C)c2ccc3c(c2)OCO3)cc1S(N)(=O)=O | -0.902
82 | c1ccc(CCCc2nc(-c3ccccn3)no2)cc1 | -7.53
83 | COc1cc(/C=N/NC(=O)CCC(=O)Nc2ccc(Br)cc2)ccc1O | 22
84 | O=C1CNC(=O)N1CC(O)Cn1c2ccccc2c2ccccc21 (centres unmarked) | 9.97
85 | COc1cc(CNc2ccc(O)cc2)cc(Br)c1OCc1ccccc1F | 8.69
86 | O=C(Nc1ccccc1Cl)NC1(C(=O)N2CCCCC2)CCCCC1 | 14.9
87 | Cc1ccccc1Nc1c([N+](=O)[O-])ccc2c1=NC1(CCCCC1)N=2 | -16.6
88 | Cc1c(CC(=O)NCCCO)c(=O)oc2cc3c(cc12)CCC(C)(C)O3 | 17.6
89 | CCN(c1ccccc1)S(=O)(=O)c1ccc(OC)c(NC(=O)C2CC(=O)N(Cc3ccccc3)C2)c1 (centres unmarked) | -24
